# Data as given in PubChem BioAssay AID2107 (National Center for Advancing Translational Sciences (NCATS), 2009).
# Out of some 240,000 compounds screened, about 20 (0.008%) were called active. Inconclusive results, whose numbers are uncertain, are shown with a selection of clear calls. Calls come from the whole dose curve; as a rule, active = well fitted inhibition curve with a large enough effect; inconclusive = small, poorly fitted or top-dose-only effect, or effect the other way; inactive = flat fitted curve, though single readings scatter. No potency is given beside an inconclusive call; the fits are too rough.
# Molecular target: Alpha-galactosidase A (Homo sapiens) (UniProt P06280)
# Assay: qHTS Assay for Inhibitors and Activators of Human alpha-Galactosidase From Spleen Homogenate;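 for activity change, negative = inhibition: 0% = enzyme with vehicle and -100% = no enzyme basal signal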
# Details: 4MU-alpha-Gal fluorescence, 40 min; activity change, negative = inhibition: at 80 µM (top of the series)
# In short: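 Spleen homogenate 1 ug + cpd (titration) + 4-MU-alpha-D-galactopyranoside 1 mM; 37C 40 min; 50 mM citrate/phosphate pH 5.0, 0.01% Tween-20; stop pH 10; fluorescence 365/440; AC50 via Hill.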
# Potency is the fitted concentration of half-maximal effect; tags give direction and shape of the fitted curve.
# UniProt P06280, sequence (P06280 whole entry, looked up): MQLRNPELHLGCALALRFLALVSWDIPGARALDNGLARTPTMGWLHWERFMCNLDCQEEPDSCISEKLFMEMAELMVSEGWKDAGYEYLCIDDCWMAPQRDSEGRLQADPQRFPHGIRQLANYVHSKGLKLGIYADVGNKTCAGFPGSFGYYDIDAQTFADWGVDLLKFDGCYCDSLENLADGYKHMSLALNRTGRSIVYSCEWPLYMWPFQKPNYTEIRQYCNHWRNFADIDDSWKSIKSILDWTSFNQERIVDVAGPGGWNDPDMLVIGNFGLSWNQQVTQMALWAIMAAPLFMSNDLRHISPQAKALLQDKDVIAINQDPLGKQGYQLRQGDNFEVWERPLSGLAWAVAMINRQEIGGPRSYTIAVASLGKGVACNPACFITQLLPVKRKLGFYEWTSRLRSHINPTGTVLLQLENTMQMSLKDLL
Structure (SMILES),Potency,"activity change, negative = inhibition"
CCCc1cc(=O)oc2c(CN3CCCC3)c(O)ccc12,"inconclusive [activator, partial curve]",
Cc1nc2cc(N3CCCCC3)c(NC(=O)c3ccncc3)cc2c(=O)n1Cc1ccc(Cl)cc1,,inactive: 6.85%
CCNCCCNCCCNCCCNCC,"inconclusive [inhibitor, single point]",
CCc1nn(C)c2c(=O)c(=O)c2n(C)[nH]1,"inconclusive [inhibitor, partial curve]",
CCCNC(=O)COC(=O)c1cc2c(=O)n3ccccc3nc2s1,"inconclusive [activator, full curve]",
Cn1c(=O)c2c(nc(N/N=C/c3ccco3)n2C)n(C)c1=O,,inactive: 4.41%
COC(=O)c1cc2c(=O)n3ccccc3nc2n(C)c1=N,"inconclusive [activator, full curve]",
COCCn1cnnc1SCC(=O)Nc1ccc(Br)cc1F,,inactive: 2.9%
N=c1c(C(=O)NCc2ccccc2)cc2c(=O)n3ccccc3nc2n1CCCN1CCOCC1,"inconclusive [activator, single point]",
CCCCc1nc2c(c3c1C[C@H](C)OC3)CN(C(=O)N[C@@H](C)c1ccccc1)CC2,,inactive: -11% [at 17.5 µM]
C[C@H]1C(c2cccc(Cl)c2)=NN(c2ccccc2)[C@@H]1CO,"inconclusive [activator, partial curve]",
COc1ccc(N2C(=O)CC(N3CCN(S(=O)(=O)c4cc(C)ccc4C)CC3)C2=O)cc1 (configuration not stated),,inactive: 4.38%
CCOC(=O)COc1ccc2c(c1)C(=O)CC(C)(c1cccnc1)O2 (configuration not stated),"inconclusive [activator, single point]",
Cc1ccccc1C(=O)N=c1c(C#N)cc2c(=O)n3cccc(C)c3nc2n1Cc1ccco1,"inconclusive [activator, single point]",
Cn1nc(-c2ccc(C(=O)Nc3ccc(F)cc3)cc2)c2ccccc2c1=O,,inactive: 1.18%
Nc1c(C(=O)NCCN2CCOCC2)c2nc3ccccc3nc2n1-c1cccc(F)c1,"inconclusive [activator, partial curve]",
O=c1[nH]c(N/N=C\c2ccc(F)cc2)nc2ccccc12,"inconclusive [activator, single point]",
CC1=C(C(=O)OCC2CCCO2)C(c2ccccc2OC(C)C)C2=C(CC(c3ccco3)CC2=O)N1 (configuration not stated),"inconclusive [activator, single point]",
COc1ccc(-n2c(C)nc3cc(C(=O)NCc4ccc5c(c4)OCO5)ccc32)cc1,,inactive: -14.7%
Cc1cc(=O)oc2c(CN3CC(C)OC(C)C3)c(O)c(Cl)cc12 (configuration not stated),"inconclusive [activator, partial curve]",
CCS(=O)(=O)Nc1ccc(C2=NN(C(=S)Nc3ccccc3)C(c3ccco3)C2)cc1 (configuration not stated),"inconclusive [activator, single point]",
c1ccc(Cn2c(-c3cccs3)nc3nc4ccccc4nc32)cc1,"inconclusive [activator, single point]",
CCOC(=O)C1=C(C)NC(=O)NC1c1ccc(N2CCC(c3ccccc3)=N2)cc1 (configuration not stated),"inconclusive [activator, partial curve]",
NCCNc1ccc([N+](=O)[O-])c(NC2CC2)c1,"inconclusive [inhibitor, single point]",

Structure (SMILES),Potency,"activity change, negative = inhibition"
CCOC(=O)c1csc(NC(=O)c2ccc(S(=O)(=O)N(CC)CC)cc2)n1,"inconclusive [inhibitor, single point]",
C=CCSc1nnc(-c2cc3c(s2)-c2ccccc2CC3)o1,"inconclusive [activator, partial curve]",
COc1ccccc1[C@H]1C(c2ccc(F)cc2)=NN(c2ccccc2)[C@@H]1CO,"inconclusive [activator, partial curve]",
CCOC(=O)CCc1c(C)c2ccc(O)cc2oc1=O,"inconclusive [activator, partial curve]",
Cc1cccc(NC(=O)c2cc(-c3ccc(C)s3)nc3ccccc23)n1,"inconclusive [activator, partial curve]",
c1ccc2c(c1)nnn2Cc1nnc2sc(-c3ccncc3)nn12,,inactive: -8.75%
COc1ccc(-n2cnnc2SCC(=O)Nc2cccc(S(=O)(=O)N3CCCCC3)c2)cc1,"inconclusive [inhibitor, partial curve, poor fit]",
O=c1c(Cc2ccc(F)cc2)c(O)ccn1C1CCCCC1,"inconclusive [inhibitor, single point]",
CCOc1cccc2cc(C(=O)Nc3ccccc3-c3ccccc3)c(=O)oc12,"inconclusive [inhibitor, single point]",
Cc1ccc(OCC(=O)Nc2nnc(C3CCCO3)s2)c(Br)c1 (configuration not stated),"inconclusive [inhibitor, single point]",
NCCCCCc1cnc[nH]1,,inactive: -4.87%
COc1cccc(-c2ccc(C#N)c(OC(=O)c3ccc(Cl)cc3)n2)c1,"inconclusive [activator, single point]",
O=C(O)[C@H]1CCCN(CCC=C(c2ccccc2)c2ccccc2)C1,,inactive: 7.6%
CCCCc1cc(=O)oc2c(CN(C)C)c(O)c(Cl)cc12,"inconclusive [activator, partial curve]",
O=c1[nH]c(=O)c2nc3c4ccccc4c4ccccc4c3nc2[nH]1,,inactive: -0.0189%
CC1(CCc2ccc3c(c2)OCO3)NC(=O)c2ccccc2N1 (configuration not stated),"inconclusive [activator, partial curve]",
CCOc1cc(/C=C(\C#N)C(N)=O)ccc1OS(=O)(=O)c1ccccc1,,inactive: -3.58%
Cc1ccc(-c2nc3ncccn3c2Nc2ccccc2C)o1,,inactive: -1.99%
CN1C(C(=O)NCc2cccc(Br)c2)CC2Cn3c(nc4cc5ccccc5cc43)C21 (configuration not stated),,inactive: 3.58%
CCCSc1nc2sc3c(c2c(=O)[nH]1)CCN(Cc1ccccc1)C3,"inconclusive [activator, partial curve]",
CCOc1ccc(/C=C2/SC(=S)N(C(C(=O)O)c3ccccc3)C2=O)cc1OCC (configuration not stated),"inconclusive [inhibitor, partial curve]",
O=C1S/C(=C\c2ccc(O)c([N+](=O)[O-])c2)C(=O)N1c1ccccc1Cl,,inactive: 0.658%
CSc1nc(N(C)NC(=O)c2ccccc2)c2ccccc2n1,,inactive: 0.877%
COC(=O)C/C=C1\c2ccc3c(c2[C@@H](OC)[C@@H]1C)OCO3,,inactive: -3.13%

Structure (SMILES),Potency,"activity change, negative = inhibition"
O=C(NC(=S)Nc1ccc(N2CCCC2)cc1)c1ccccc1[N+](=O)[O-],,inactive: 1.4%
COc1cc(N)c(Cl)cc1C(=O)OCCN1CCCCC1,"inconclusive [inhibitor, partial curve]",
CCOC(=O)c1ccc(CNC(=O)C2CCCCC2C(=O)OCC(F)(F)F)o1 (configuration not stated),,inactive: -15.5%
Fc1ccc(-n2c(-c3cccs3)nc3nc4ccccc4nc32)cc1,"inconclusive [activator, single point]",
CC(=O)c1c(C)n(-c2ccccc2)c2ccc(O)cc12,,inactive: 0.857%
Cn1c(-n2c(CCCN3C(=O)c4ccccc4C3=O)nc3ccccc3c2=O)nc2ccccc21,"inconclusive [activator, single point]",
O=C(Nc1ccc(C(=O)NC2CCCCC2)cc1)c1cncc(Br)c1,,inactive: -3.53%
COc1cc(NC2c3ccccc3C(=O)N2Cc2ccc3c(c2)OCO3)cc(OC)c1 (configuration not stated),"inconclusive [inhibitor, single point]",
N#CC1=C(N)OC2=C(CCc3ccccc32)C1c1ccccc1Cl (configuration not stated),"inconclusive [activator, single point]",
O=C(O)CC1Sc2ccccc2NC1=O (configuration not stated),"inconclusive [activator, single point]",
Cc1cc(NCCCO)n2c(nc3ccccc32)c1C#N,"inconclusive [activator, partial curve]",
COc1ccc(OC)c(/C=N/NC(=O)c2cc3c(OC)cc(OC)cc3[nH]2)c1,"inconclusive [activator, partial curve]",
CC(=O)COc1nc2c(c(-c3ccco3)c1C#N)CCc1ccccc1-2,"inconclusive [activator, single point]",
c1ccc(CNc2ncncc2-c2ccoc2)cc1,,inactive: -2.63%
CCC(=O)Nc1c(S(=O)(=O)c2ccccc2)c2nc3ccccc3nc2n1Cc1ccccc1,"inconclusive [activator, single point]",
CC(=O)C1=C(O)C(=O)N(Cc2ccco2)C1c1ccccc1F (configuration not stated),"inconclusive [inhibitor, partial curve, poor fit]",
COc1cccc(NC(=O)CN(C)C(=O)COc2ccc3ccccc3c2)c1,,inactive: 9.12%
CCCCN(Cc1cc2cc(OC)ccc2[nH]c1=O)C(=O)c1ccccn1,"inconclusive [activator, partial curve]",
COC(=O)C1=CN(C2CC2)C=C(C(=O)OC)C1c1ccccc1OC,"inconclusive [activator, partial curve]",
COc1cccc(NC(=O)CN(c2cccc(C(F)(F)F)c2)S(C)(=O)=O)c1,"inconclusive [inhibitor, partial curve]",
CC1S/C(=N/N=C/c2cccs2)NC1=O (configuration not stated),,inactive: 3.99%
COc1ccc2c(c1)C(=O)[C@@H](OC(=O)NCc1ccc3c(c1)OCO3)[C@H](c1ccc(OC)c(Br)c1)O2,inactive,
CC(C)(C)CC(C)(C)NC(=O)/C=C/C(=O)O,,inactive: -10.6%
CCC(=O)NNC(=O)CCC(=O)Nc1cccc(Cl)c1C,,inactive: -7.37%
